From patent US10299477B2 (priority 2015, dated 2019)

Legend:
Magnaporthe grisea = assay type: in vivo; details: rice blast, Magnaporthe grisea; 250 ppm spray
Phytophthora infestans = assay type: in vivo; details: late blight on tomato, Phytophthora infestans; 250 ppm spray, 5-10 days after inoculation

Row | Compound | Test A (control value class) (Magnaporthe grisea) | Test F (control value class) (Phytophthora infestans)
1 | O=c1c(Cl)cc(-c2cc(F)ccc2Cl)c(-c2c(F)cccc2F)n1CC(F)F [Compound 392] | H (H shows more than 50% of control values) | L (L shows 50% or less of control values)
2 | O=c1c(Br)cc(-c2cc(F)ccc2Cl)c(-c2c(F)cccc2F)n1CC(F)F [Compound 393] | H (H shows more than 50% of control values) | L (L shows 50% or less of control values)
3 | CCCCn1c(-c2c(F)cccc2F)c(-c2cc(OC)ccc2Cl)ccc1=O [Compound 394] | H (H shows more than 50% of control values) | L (L shows 50% or less of control values)
4 | CCCCn1c(-c2c(F)cccc2F)c(-c2cc(OC)ccc2Cl)cc(Cl)c1=O [Compound 395] | H (H shows more than 50% of control values) | L (L shows 50% or less of control values)
5 | CCCCn1c(-c2c(F)cccc2F)c(-c2cc(OC)ccc2Cl)cc(Br)c1=O [Compound 396] | H (H shows more than 50% of control values) | L (L shows 50% or less of control values)
6 | CCn1c(-c2c(F)cccc2F)c(-c2c(F)cccc2Cl)cc(Cl)c1=O [Compound 397] | H (H shows more than 50% of control values) | L (L shows 50% or less of control values)
7 | Cn1c(-c2c(F)cccc2F)c(-c2c(F)cccc2Cl)ccc1=O [Compound 398] | H (H shows more than 50% of control values) | L (L shows 50% or less of control values)
8 | CCCn1c(-c2c(F)cccc2F)c(-c2cc(OC)ccc2Cl)ccc1=O [Compound 399] | H (H shows more than 50% of control values) | L (L shows 50% or less of control values)
9 | CCCn1c(-c2c(F)cccc2F)c(-c2cc(OC)ccc2Cl)cc(Cl)c1=O [Compound 400] | H (H shows more than 50% of control values) | L (L shows 50% or less of control values)
10 | CCCn1c(-c2c(F)cccc2F)c(-c2cc(OC)ccc2Cl)cc(Br)c1=O [Compound 401] | H (H shows more than 50% of control values) | L (L shows 50% or less of control values)
11 | COCn1c(-c2c(F)cccc2F)c(-c2cc(OC)ccc2Cl)ccc1=O [Compound 402] | H (H shows more than 50% of control values) | L (L shows 50% or less of control values)
12 | CCn1c(-c2c(F)cc(F)cc2F)c(-c2cc(OC)ccc2Cl)ccc1=O [Compound 403] | H (H shows more than 50% of control values) | L (L shows 50% or less of control values)
13 | CCn1c(-c2c(F)cc(F)cc2F)c(-c2cc(OC)ccc2Cl)cc(Cl)c1=O [Compound 404] | H (H shows more than 50% of control values) | L (L shows 50% or less of control values)
14 | Cn1c(-c2c(F)cccc2F)c(-c2c(F)cccc2Cl)cc(Cl)c1=O [Compound 405] | H (H shows more than 50% of control values) | L (L shows 50% or less of control values)
15 | O=c1ccc(-c2c(F)cccc2Cl)c(-c2c(F)cccc2F)n1CC(F)F [Compound 406] | H (H shows more than 50% of control values) | L (L shows 50% or less of control values)
16 | O=c1c(Cl)cc(-c2c(F)cccc2Cl)c(-c2c(F)cccc2F)n1CC(F)F [Compound 407] | H (H shows more than 50% of control values) | L (L shows 50% or less of control values)

Row | Compound | Test A (control value class) (Magnaporthe grisea) | Test F (control value class) (Phytophthora infestans)
17 | CCn1c(-c2c(F)cccc2F)c(-c2ccc(Cl)cc2F)ccc1=O [Compound 408] | H (H shows more than 50% of control values) | L (L shows 50% or less of control values)
18 | COc1ccc(Cl)c(-c2ccc(=O)n(CC(F)(F)F)c2-c2c(F)cccc2F)c1 [Compound 409] | H (H shows more than 50% of control values) | L (L shows 50% or less of control values)
19 | COc1ccc(Cl)c(-c2cc(Cl)c(=O)n(CC(F)(F)F)c2-c2c(F)cccc2F)c1 [Compound 410] | H (H shows more than 50% of control values) | L (L shows 50% or less of control values)
20 | COc1ccc(Cl)c(-c2cc(Br)c(=O)n(CC(F)(F)F)c2-c2c(F)cccc2F)c1 [Compound 411] | H (H shows more than 50% of control values) | L (L shows 50% or less of control values)
21 | COc1ccc(Cl)c(-c2cc(Cl)c(=O)n(C(C)C)c2-c2c(F)cccc2F)c1 [Compound 413] | H (H shows more than 50% of control values) | L (L shows 50% or less of control values)
22 | COc1ccc(Cl)c(-c2ccc(=O)n(C)c2-c2c(F)cc(F)cc2F)c1 [Compound 415] | H (H shows more than 50% of control values) | H (H shows more than 50% of control values)
23 | COc1ccc(Cl)c(-c2cc(Cl)c(=O)n(C)c2-c2c(F)cc(F)cc2F)c1 [Compound 416] | H (H shows more than 50% of control values) | L (L shows 50% or less of control values)
24 | CCn1c(-c2c(F)cccc2F)c(-c2ccc(Cl)cc2F)cc(Cl)c1=O [Compound 417] | H (H shows more than 50% of control values) | L (L shows 50% or less of control values)
25 | Cn1c(-c2c(F)cccc2F)c(-c2ccc(Cl)cc2F)ccc1=O [Compound 418] | H (H shows more than 50% of control values) | L (L shows 50% or less of control values)
26 | Cn1c(-c2c(F)cccc2F)c(-c2ccc(Cl)cc2F)cc(Cl)c1=O [Compound 419] | H (H shows more than 50% of control values) | L (L shows 50% or less of control values)
27 | CCn1c(-c2c(F)cc(F)cc2F)c(-c2ccccc2Cl)ccc1=O [Compound 420] | H (H shows more than 50% of control values) | H (H shows more than 50% of control values)
28 | CCn1c(-c2c(F)cc(F)cc2F)c(-c2ccccc2Cl)cc(Cl)c1=O [Compound 421] | H (H shows more than 50% of control values) | L (L shows 50% or less of control values)
29 | COc1ccc(Cl)c(-c2ccc(=O)n(N)c2-c2c(F)cccc2F)c1 [Compound 422] | H (H shows more than 50% of control values) | H (H shows more than 50% of control values)
30 | COc1ccc(Cl)c(-c2cc(Cl)c(=O)n(N)c2-c2c(F)cccc2F)c1 [Compound 423] | H (H shows more than 50% of control values) | L (L shows 50% or less of control values)
31 | CCn1c(-c2c(F)cc(F)cc2F)c(-c2cc(F)ccc2F)ccc1=O [Compound 424] | H (H shows more than 50% of control values) | H (H shows more than 50% of control values)
